The source of these data is paper PMC5700166.

The list shows a part of the results, in another mix than the full data. The list includes weakly bound sequences.

This assay concerns the target T1, GST-Co-NF-kB (UniProt F1ARL5).
T1 sequence: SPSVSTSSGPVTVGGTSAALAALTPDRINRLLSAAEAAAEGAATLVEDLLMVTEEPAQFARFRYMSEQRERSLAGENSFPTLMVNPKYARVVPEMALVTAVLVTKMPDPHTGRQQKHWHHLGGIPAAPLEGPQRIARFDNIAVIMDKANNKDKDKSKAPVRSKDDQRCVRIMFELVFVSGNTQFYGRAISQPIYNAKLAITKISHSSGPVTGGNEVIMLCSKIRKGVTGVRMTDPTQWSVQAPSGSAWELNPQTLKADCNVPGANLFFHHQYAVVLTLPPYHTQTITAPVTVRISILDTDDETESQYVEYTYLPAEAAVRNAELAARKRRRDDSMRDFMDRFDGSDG
Briefly: protein-binding microarray (PBM). The following applies: PBM: ~300 nM protein, 6 mM HEPES pH 7.8, 80 mM KCl, 0.5 mM EDTA, 0.5 mM EGTA, 6% glycerol, 35 ng/ul poly-dIdC, 1% milk, 1 h, room temperature; Ap Aiptasia and Nv Nematostella (sea anemones) / Co Capsaspora / Aq Amphimedon (sponge) / Dm Drosophila / Hu human; RHD is the Rel homology domain; high values mean tight binding; most listed sequences are background and not binding sites; double strand, one strand shown.
“CCGATTAACATCAGGGAATCTTATGATGTTAATCGGGTCTTGATTCGCTTGACGCTGCTG” returned a binding signal of 3.74 z-score.
Take “CCGATTAACATCAGGGGAATACATGATGTTAATCGGGTCTTGATTCGCTTGACGCTGCTG”: the binding signal came to 6.18 z-score.
In turn, “CCGATTAACATCAGGGACGCCCCTGATGTTAATCGGGTCTTGATTCGCTTGACGCTGCTG” showed a binding signal of 1.13 z-score.
In turn, “CCGATTAACATCAGGGGGAGAAATGATGTTAATCGGGTCTTGATTCGCTTGACGCTGCTG” yielded a binding signal of 10.7 z-score.
The result for “CCGATTAACATCAAGGGAAATCCTGATGTTAATCGGGTCTTGATTCGCTTGACGCTGCTG” reads 3.33 z-score; that for “CCGATTAACATCAGGGACTTTACTGATGTTAATCGGGTCTTGATTCGCTTGACGCTGCTG”, 0.561 z-score.
Consider “CCGATTAACATCAGGGGGGGGTATGATGTTAATCGGGTCTTGATTCGCTTGACGCTGCTG”, for which the binding signal was found to be 5.96 z-score.
The sequence “CCGATTAACATCAGGGATATCCATGATGTTAATCGGGTCTTGATTCGCTTGACGCTGCTG” yielded a binding signal of 0.713 z-score.
Take “CCGATTAACATCAGGGGGAGAACTGATGTTAATCGGGTCTTGATTCGCTTGACGCTGCTG”: the binding signal is 7.22 z-score.
As for “CCGATTAACATCAGGGAGTTCCATGATGTTAATCGGGTCTTGATTCGCTTGACGCTGCTG”, the binding signal turned out to be 0.63 z-score.
“CCGATTAACATCAGGGGAACTACTGATGTTAATCGGGTCTTGATTCGCTTGACGCTGCTG” returned a binding signal of 5.65 z-score.
“CCGATTAACATCAGAAATGTCCCTGATGTTAATCGGGTCTTGATTCGCTTGACGCTGCTG”: the binding signal stood at 1.29 z-score.
